Laboratory results from PubChem BioAssay AID1645882 (National Center for Advancing Translational Sciences (NCATS), 2021).
Among all 16,000 compounds or so, about 120 (0.75%) were called active. Inconclusive results (about 4%) are left out. Calls follow the shape of the dose curve; as a rule, active = well fitted inhibition curve with a large enough effect; inconclusive = small, poorly fitted or top-dose-only effect; inactive = no such curve, though single readings can be large or run the other way. Some of the results follow. Where a structure was tested more than once in an assay, its records may differ in their call.

Target: Rap guanine nucleotide exchange factor 3 (Homo sapiens) (UniProt O95398)
Chain of UniProt O95398 (O95398 whole entry, looked up): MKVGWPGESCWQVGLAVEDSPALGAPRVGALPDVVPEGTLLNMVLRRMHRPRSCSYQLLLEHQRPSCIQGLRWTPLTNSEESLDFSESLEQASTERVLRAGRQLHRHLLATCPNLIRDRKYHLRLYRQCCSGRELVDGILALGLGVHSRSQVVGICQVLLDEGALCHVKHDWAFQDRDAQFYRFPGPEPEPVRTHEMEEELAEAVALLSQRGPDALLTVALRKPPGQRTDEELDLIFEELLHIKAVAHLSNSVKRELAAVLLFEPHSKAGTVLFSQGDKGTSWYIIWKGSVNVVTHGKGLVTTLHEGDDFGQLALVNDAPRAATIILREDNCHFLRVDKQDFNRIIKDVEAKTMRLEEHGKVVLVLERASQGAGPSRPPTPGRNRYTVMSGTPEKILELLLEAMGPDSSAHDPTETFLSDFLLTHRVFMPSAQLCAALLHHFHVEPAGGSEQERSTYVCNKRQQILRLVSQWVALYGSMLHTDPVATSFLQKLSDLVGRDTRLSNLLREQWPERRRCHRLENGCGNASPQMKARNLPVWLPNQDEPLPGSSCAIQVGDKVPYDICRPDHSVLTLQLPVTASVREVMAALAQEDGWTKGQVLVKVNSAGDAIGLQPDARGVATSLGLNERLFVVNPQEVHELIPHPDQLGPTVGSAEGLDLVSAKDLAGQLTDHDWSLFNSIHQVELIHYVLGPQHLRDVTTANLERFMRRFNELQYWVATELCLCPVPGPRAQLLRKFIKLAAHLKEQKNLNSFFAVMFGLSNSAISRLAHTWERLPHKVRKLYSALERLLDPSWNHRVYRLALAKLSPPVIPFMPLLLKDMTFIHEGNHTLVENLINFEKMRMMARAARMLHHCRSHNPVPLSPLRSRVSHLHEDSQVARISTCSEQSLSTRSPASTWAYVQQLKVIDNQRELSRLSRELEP
Experiment: Validation qHTS for antagonist of cAMP-regulated guanine nucleotide exchange factor 3 (EPAC1);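 also: plate controls were DMSO for no effect and ATA control for full effect; nearly all actives have a fitted effect of over 75% in size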
Conditions: EPAC1 Rap1B-BODIPY-GDP exchange, fluorescence; series mostly up to 150 µM; activity change, negative = inhibition: at the top concentration
How it was run: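 Nucleotide exchange followed as fluorescence loss when BODIPY-GDP leaves Rap1B (480 nm excitation, 540 nm emission), read at 5 min intervals over 30 min. Reaction: 100 nM EPAC1, 250 nM RAP1B-BODIPY-GDP, 50 uM GDP; ATA and DMSO define normalization.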

Activity change, negative = inhibition, inactive:
N#C/C(=C1\SCC(c2ccccc2Cl)S1)n1ccnc1 (configuration not stated) 16.1%
C[N+]1(C)CCCC(OC(=O)C(O)(c2ccccc2)c2ccccc2)C1 (configuration not stated)
Cc1cnc(-n2ncc(C(=O)N(C)CC3COCCO3)c2C2CC2)nc1-c1cccs1 (configuration not stated) 20.8%
CN1CCN2c3ccccc3Cc3ccccc3[C@@H]2C1 -1.25%
CN1CCN(c2ncc3nc(-c4cccs4)c(=O)n(Cc4ccc(F)cc4)c3n2)CC1 16.9%
CN(C)c1ncc2nc(CCc3ccccc3)c(=O)n(Cc3cccs3)c2n1 7.49%
CN(C)C(=O)c1ccc(-c2nc(Nc3ccncc3)c3ccccc3n2)cc1 4.53%
Cc1nc(NCc2c(F)cccc2F)sc1-c1ccn(CCN2CCOCC2)n1 15.6%
CC(C)C(NS(C)(=O)=O)c1nnc2n1CCN(Cc1ccc(Cl)cc1)CC2 (configuration not stated) 11.2%
CC(=O)N1CCC2(CC1)CCN(c1cccc(-c3ccccc3)c1)CC2 -9.51%
COc1cc(Cc2cnc(N)nc2N)cc(OC)c1OC
NC(=O)C(=O)O -6.39% [at 75.8 µM]
O=c1c(-c2ccc(F)cc2)nc2cnc(Oc3cccc(Cl)c3)nc2n1C[C@H]1CCCO1 -9.52%
CN(CCc1ccc(Cl)c(Cl)c1)CCN1CCCC1 16.7%
CC1=CC(=O)CC(C)(C)C1(O)/C=C/C(C)=C/C(=O)O (configuration not stated) 1.54%
O=S(=O)(c1ccccc1)N1CCC2(CC1)CN(c1ccncc1)C2 10.6%
CN1CCN(c2ncncc2-c2ccccc2C(F)(F)F)CC1 10.5%
COCC1=C(C(=O)OC(C)OC(=O)OC(C)C)N2C(=O)[C@@H](NC(=O)/C(=N\OC)c3csc(N)n3)[C@H]2SC1 (some centres not stated)
COc1cc(=O)n2c(c1C(=O)NCc1ccc3c(c1)OCO3)CCN(C(=O)c1ccc(C)cc1)CC2 15.7%
O=C(CCc1nc2ccccc2s1)N1CCOc2ccc(CN3CCc4sccc4C3)cc2C1 16%
CO[C@H]1[C@H](NC(=O)c2ccco2)c2ccccc2C12CCN(Cc1cc(Cl)ccc1O)CC2 9.06%
COc1ccc(-c2nc3cnc(Nc4cccc(OC)c4)nc3n(CCC#N)c2=O)cc1 27.9%
O=S1(=O)CCO[C@H]2Cc3ccccc3[C@H]2N1Cc1ccccc1 -16%
OC[C@H]1O[C@@H](n2cnc3c(=S)nc[nH]c32)[C@H](O)[C@@H]1O 19.2%
CCN(CC)CCOC(=O)C(c1ccccc1)C1CCCCC1 (configuration not stated) 8.31%
COc1cc(-c2ccc(N=Nc3ccc4c(S(=O)(=O)O)cc(S(=O)(=O)O)c(N)c4c3O)c(OC)c2)ccc1N=Nc1ccc2c(S(=O)(=O)O)cc(S(=O)(=O)O)c(N)c2c1O 12.3% [at 27.4 µM]
CN(C)c1cc2c(Nc3ccc4c(cnn4Cc4ccccc4)c3)ncnc2cn1 -2.54% [at 75.8 µM]
COc1ccccc1-c1ccnc(-n2ncc(C(=O)NCc3cccnc3)c2C)n1 8.04%
CN(C)C(=O)c1ccc(-c2cncnc2-n2ccnc2)cc1 20.5%
COCCN1CCN(C(=O)c2cnn(-c3nccc(-c4ccco4)n3)c2C2CC2)CC1 12.5%
Cc1nc2cnc(Oc3ccccc3)nc2n(CCC#N)c1=O 5.7%
OC(Br)C(O)C(O)N1CCCc2ccccc21 (configuration not stated) 6.54%
C=CCc1ccc(OC(=O)c2ccccc2)c(OC)c1 -2.05%
COc1cc(OC)c(OC)cc1CN1CCCC(c2nc(C)ncc2-c2ccc(F)cc2)C1 (configuration not stated) 5.09%
O=C(NCCc1nnc2n1CCN(Cc1cc3ccccc3o1)CC2)c1ccoc1 10.4%
O=C(C[n+]1csc2ccccc21)c1cccc([N+](=O)[O-])c1 1.68%
O=C(c1ccncc1)N1CCC[C@@]2(CCN(c3ccccn3)C2)C1 9.83%
COc1ccc(S(=O)(=O)Nc2nnc(CC(C)C)s2)cc1
CC1(C)S[C@H]2[C@@H](NC(=O)C(N)c3ccccc3)C(=O)N2[C@H]1C(=O)O (some centres not stated) 11.9%
O=S(=O)(c1ccccc1)N1CCC[C@@]2(CCN(Cc3ccccc3)C2)C1 -11.5%
CN1CCN(c2ncncc2-c2ccc(C(=O)N(C)C)cc2)CC1 12.1%
CC12CC[C@@](C(=O)O)(C(=O)C1=O)C2(C)C 3.58%
CC(=O)c1ccc(-c2ccc3c4c(ccc3c2)OC(CNC(=O)[C@@H]2CCCN2C(C)=O)C4)s1 (some centres not stated) 1.07%
Cc1ccc(O)c2ncccc12 -2.33%
Cc1cnc(-n2ncc(C(=O)N3CCN(C(C)C)CC3)c2-c2ccco2)nc1-c1ccc(F)cc1 14.7%
C[Se]CCC(N)C(=O)O (configuration not stated) 32.4%
CC(C)CSc1nnc(CNC(=O)c2ccccn2)n1C 16.1%
O=c1c(CCc2ccccc2)nc2cnc(N3CCOCC3)nc2n1-c1ccccc1 17.3%
Cc1ccc2[nH]cc(C(O)c3c[nH]c4ccc(C)cc34)c2c1 -2.46%
Cc1noc(C)c1-c1ccc2ncnc(N(C)C)c2c1 1.44%
O=C(c1cc(C(F)(F)F)cc(C(F)(F)F)c1)N1CCC2(CC1)CN(c1ncccn1)C2 8.71%
COc1ccc2c(c1)-c1nc(-n3ncc(C(=O)N(C)C(C)c4ccon4)c3C3CC3)ncc1CC2 (configuration not stated) -1.85%
CN(C)CCC=C1c2ccccc2CCc2ccccc21
Cc1ccnc2c1NC(=O)c1cccnc1N2C1CC1 14.8%
Cn1cccc1C(=O)N1CCC2(CCCN(C(=O)Nc3cccc(C#N)c3)C2)CC1 20.6%
Cc1cnc(-n2ncc(C(=O)NCCc3ccncc3)c2-c2cccs2)nc1-c1ccc(F)cc1 -3.02%
C/C=C(\C)C(=O)O[C@H]1CC(C)=C2C(=O)C=C(C)C2[C@@H]2OC(=O)[C@@](C)(OC(=O)C=C(C)C)C21 (some centres not stated) -12.6%
CC(C)[C@H](CO)Nc1nc(Nc2cccc(Cl)c2)c2ncn(C(C)C)c2n1 -13.6%
O=c1c2ccccc2oc2ccc(-c3ccoc3)cc12 -12.9%
CCCNC(=O)[C@H]1O[C@@H]1C(=O)N[C@H](C(=O)N1CCC[C@H]1C(=O)OC)[C@@H](C)CC 22.3% [at 201 µM]
COc1ccc(CCNC[C@H](O)c2ccc(O)cc2)cc1OC 19.1%
Cc1[nH]c(=O)c(C#N)cc1-c1ccncc1
O=c1c(-c2cc(F)cc(F)c2)nc2cncnc2n1C1CC1 14.2%
Cn1c(=O)c2[nH]cnc2n(C)c1=O
CC(C)[C@@H](CSc1ccccc1)N1CCN(Cc2ccccc2)CCC1=O 8.17%
O=C(OCC1(COC(=O)c2cccnc2)CCCC(COC(=O)c2cccnc2)(COC(=O)c2cccnc2)C1O)c1cccnc1 33.4%
Oc1ccc(Cl)c2c1CCC2 4.68%
CC1=C(C(N)=O)N2C(=O)[C@@H](NC(=O)Cc3ccccc3)C2SC1 (some centres not stated) -3.04%
COC1C[C@@H](O[C@@H]2C(C)C(=O)OC(C)C(C)[C@H](OC(C)=O)C(C)C(=O)[C@@]3(CO3)CC(C)C(OC3OC(C)CC(N(C)C)[C@H]3OC(C)=O)C2C)OC(C)[C@@H]1OC(C)=O (some centres not stated) 25.2%
CCN1CCN(C(=O)c2cnn(-c3ncc4c(n3)-c3ccccc3CCC4)c2COC)CC1 -3.59%
Cn1c(=O)c(-c2cc(F)cc(F)c2)nc2cnc(Oc3cccc(Cl)c3)nc21 9.9%
C[C@@]12C(=O)OC(=O)[C@@]1(C)C1CCC2O1 10.3%
COCCn1c(=O)c(C)nc2cnc(Oc3cccc(Cl)c3)nc21 12.9%
O=C(c1csnn1)N1CCC2(CCCN(c3ccccn3)C2)CC1 6.37%
CCOC(=O)C[C@H]1c2cc(C(F)(F)F)ccc2S(=O)(=O)N1C(C)C -1.57%
COc1ncc2nc(-c3ccc(F)cc3)c(=O)n(CCc3ccccc3)c2n1 16.4%
NC(N)=NCCNS(=O)(=O)c1cccc2cnccc12 -0.457%
COc1ccc(NC(=O)[C@@H]2CC=C[C@@H]3CCN(Cc4ccc(Cl)c(Cl)c4)C(=O)[C@@H]32)cc1 -17%
C=CCN1CCN(c2nc3ccccc3nc2C#N)CC1
COc1ccc(C(=O)N2CCC3(CCN(C(=O)Nc4cccc(F)c4)CC3)CC2)cc1 -2.45%
Cc1c(C(N)=O)cc([N+](=O)[O-])cc1[N+](=O)[O-] 0.856%
CN1CCC2(CC1)CCN(C(=O)c1cccc(F)c1)CC2 12%
CCN(CC)C[C@@H]1CCCCN1CC(=O)N1c2ccccc2C(=O)Nc2cccnc21 5.98%
CNC(=O)[C@H]1O[C@@H](n2cnc3c(NCc4cccc(I)c4)ncnc32)[C@H](O)[C@@H]1O
O=S1(=O)[C@H]2C[C@@H]3C=C[C@@]2(CN1Cc1ccc(Cl)cc1)O3 16.1%
Cc1cccc(CNc2nc(-c3cccc(NS(C)(=O)=O)c3)nc3ccccc23)c1 15%
O=c1c(-c2ccc(F)c(F)c2)nc2cncnc2n1C1CC1 7.48%
C/C=C/C(=O)N(CC)c1ccccc1C
CC(NC(=O)c1ccco1)c1nnc2n1CCN(Cc1ccc(N(C)C)cc1)CC2 (configuration not stated) 14.1%
O=P(O)(O)C(Sc1ccc(Cl)cc1)P(=O)(O)O -14.4%
O=C1N=C(O)CN1/N=C\c1ccc(-c2ccc([N+](=O)[O-])cc2)o1 -2.23%
N#CCCn1c(=O)cnc2cnc(Oc3ccccc3)nc21 0.5%
C=CCCN(Cc1ccccc1)S(=O)(=O)c1cc(Br)ccc1Br 16%
CC[C@H]1CN2CCc3cc(OC)c(OC)cc3[C@H]2C[C@@H]1C[C@@H]1NCCc2cc(OC)c(OC)cc21 -3.01%
CC(C)(C)OC(=O)N(Cc1ccco1)S(=O)(=O)c1ccccc1Br -13.8%
N=C(N)N 30%
CCOC(=O)C[C@H]1c2ccccc2S(=O)(=O)N1Cc1cccc(C(F)(F)F)c1 -12.2%
CCN(CC)CCOC(=O)C1(c2ccccc2)CCCC1 12.3%
C=CC(C)(O)CC/C=C(\C)CCC=C(C)C (configuration not stated) 9.08%
CN(CCc1ccc(Cl)c(Cl)c1)C[C@@H](O)COc1ccc(NS(C)(=O)=O)cc1 -9.47%
C[C@H]1CCC(=O)N([C@H](CC#N)Cc2ccccc2)CC1 15.4%
COc1cc(OC)c2c(OC)c(-c3ccc4c(c3)OCO4)c(=O)oc2c1 7.54%
